Data: publication PMC4336329 (PLoS ONE, 2015)
Hit rate of the full screen: of about 310,000 compounds, about 2,200 (0.71%) showed an effect of 50% or more. Effects have a minus sign here. The list shows a part of the results.

target: human ether-à-go-go-related gene (hERG) potassium channel (human, UniProt Q12809); assay: primary screen, population patch clamp on CHO cells stably expressing hERG
Sequence (Q12809 whole entry, looked up): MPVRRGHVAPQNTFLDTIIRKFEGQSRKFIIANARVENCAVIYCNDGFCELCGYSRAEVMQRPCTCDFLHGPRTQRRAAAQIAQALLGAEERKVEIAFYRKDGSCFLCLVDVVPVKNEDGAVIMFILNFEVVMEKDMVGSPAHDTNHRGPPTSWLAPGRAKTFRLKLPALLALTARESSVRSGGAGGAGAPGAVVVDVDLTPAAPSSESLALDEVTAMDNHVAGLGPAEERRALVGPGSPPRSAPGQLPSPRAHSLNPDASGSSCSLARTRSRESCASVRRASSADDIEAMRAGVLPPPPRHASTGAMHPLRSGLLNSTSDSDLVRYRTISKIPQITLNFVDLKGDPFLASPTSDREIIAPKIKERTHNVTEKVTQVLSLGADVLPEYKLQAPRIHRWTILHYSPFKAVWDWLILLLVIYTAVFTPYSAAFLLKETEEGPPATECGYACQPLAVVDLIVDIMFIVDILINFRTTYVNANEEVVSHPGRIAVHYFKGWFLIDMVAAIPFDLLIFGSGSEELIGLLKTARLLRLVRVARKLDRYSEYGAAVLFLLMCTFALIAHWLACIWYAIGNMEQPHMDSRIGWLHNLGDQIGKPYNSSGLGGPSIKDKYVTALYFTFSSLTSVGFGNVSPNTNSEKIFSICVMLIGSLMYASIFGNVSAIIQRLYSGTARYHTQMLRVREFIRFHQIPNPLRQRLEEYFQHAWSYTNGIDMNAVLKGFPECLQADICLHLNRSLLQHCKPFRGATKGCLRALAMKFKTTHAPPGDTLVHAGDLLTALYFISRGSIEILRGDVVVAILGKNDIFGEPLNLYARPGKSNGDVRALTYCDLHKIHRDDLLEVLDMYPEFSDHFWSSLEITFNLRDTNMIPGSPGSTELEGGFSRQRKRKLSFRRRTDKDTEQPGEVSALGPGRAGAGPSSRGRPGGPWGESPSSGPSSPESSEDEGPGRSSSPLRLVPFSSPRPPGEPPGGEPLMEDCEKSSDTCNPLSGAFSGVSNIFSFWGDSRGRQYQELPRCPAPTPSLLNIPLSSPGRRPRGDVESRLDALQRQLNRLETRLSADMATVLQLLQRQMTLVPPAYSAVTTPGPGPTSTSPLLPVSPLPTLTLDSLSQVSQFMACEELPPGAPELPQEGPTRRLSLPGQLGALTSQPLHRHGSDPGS

SMILES | hERG current change (%, negative = inhibition) at 1uM
Cc1nc2sc(C(=O)Nc3ccccc3)c(N)c2c(C)c1[N+](=O)[O-] | 12.5%
COc1ccccc1NC(=O)COC(=O)c1ccccc1OCC(=O)Nc1ccc(SC(F)F)cc1 | 3.96%
NC(=NC(=O)c1ccc(Cl)cc1)N1N=CCC1c1ccccc1 (stereo not drawn) | 10.1%
COCC(=O)N(Cc1ccc(OC)cc1)Cc1nc2ccccc2c(=O)[nH]1 | 9.95%
CC(Oc1ccccc1)C(=O)OCC(=O)NC(=O)NC1CCCCC1 (stereo not drawn) | 8.31%
O=c1[nH]c(O)c(N=Nc2cccc(S(=O)(=O)N3CCOCC3)c2)c(=O)[nH]1 | -37.6%
N/C(=N\OC(=O)Cc1ccccc1[N+](=O)[O-])c1ccc(Br)cc1 | 20.2%
CCc1ncc(C)nc1CC | 13.1%
COc1cccc(/C=C2\N=C(c3cncc(Br)c3)OC2=O)c1 | 17.1%
CC(C)(C)NC(=O)c1ccncc1 | 13.8%
O=S(=O)(Nc1ccc2cn[nH]c2c1)c1ccc(Cl)s1 | 14%
CSc1ccccc1NC(=O)CN(C)C(=O)c1ccc2c(c1)OCCO2 | 5.99%
COc1ccc(C[C@H]2CN3C(=NC[C@@H]3Cc3ccccc3)N2CCNC(=O)c2ccc(C)c(Br)c2)cc1 | -16.7%
COc1ccc(S(=O)(=O)N2CCCC2CNC(=O)C(=O)NC2CCCCCC2)cc1 (stereo not drawn) | -3.96%
O=S(=O)(c1ccc(OCc2ccc(Br)cc2)cc1)N1CCOCC1 | 7.49%
O=C(NCCc1ccc(Cl)cc1)C1CCC(=O)N1Cc1ccc(F)cc1 (stereo not drawn) | 3.46%
OCC1(Cc2ccc(F)cc2F)CCCN(Cc2ccc(Cl)cc2)C1 (stereo not drawn) | -15%
C/C(=C\C(=O)c1ccccc1)Nc1ccc(N2CCOCC2)cc1 | 11.8%
CCOc1ccc(CCNC(=O)COC(=O)c2ccc(OC)c(OC)c2OC)cc1OCC | 13.8%

SMILES | hERG current change (%, negative = inhibition) at 1uM
CCOc1ccc(CCNC(=O)c2ccc(F)c(S(=O)(=O)N3CCOCC3)c2)cc1OCC | 6.28%
CC1(C)C(=O)Nc2ccccc2N1C(=O)COC(=O)COc1cccc(C(F)(F)F)c1 | -0.263%
Cc1ccc(NC(=O)C(CC(=O)O)C2CCCO2)c(C)c1 (stereo not drawn) | 16%
CCOc1ccc(-c2c(C(=O)N/N=C(\C)c3ccccc3OC)nnn2-c2nonc2N)cc1 | 12.5%
Fc1ccc(CSc2nc3ncc(Br)cc3[nH]2)cc1 | 4.39%
C=CCn1c(C(CCCC)CC(O)COCCC)n[nH]c1=S (stereo not drawn) | 4.49%
Cc1nnc(SCC(=O)N(C(C)C)C(C)C)nc1C | 13.7%
Cc1ccc(NC(=O)C2CCCN(S(=O)(=O)c3cnc[nH]3)C2)c(Br)c1 (stereo not drawn) | 6%
Cn1cc(CC(=O)Nc2cccc(C#N)c2)c2ccccc21 | -0.916%
Cc1ccc(S(=O)(=O)N2CC(=NN=C(N)N)C2)cc1 | 16.4%
Cc1ccc(S(=O)(=O)N(CC(=O)Nc2cccnc2)c2ccccc2C)cc1 | 11.8%
Clc1ccc(N2CCN(c3ccnc(Cl)n3)CC2)cc1 | -2.08%
Cc1cccnc1CCNCc1c(C(=O)N2C[C@@H](C)O[C@@H](C)C2)nc2ccc(Cl)cn12 | 2.33%
Cc1cc(NC(=O)CSc2nnc(CNc3cccc(C(F)(F)F)c3)n2Cc2ccco2)no1 | -18.3%
Cn1cc(S(=O)(=O)Nc2ccc(Br)cc2F)c(=O)n(C)c1=O | 15.9%
CC1Sc2ccc(S(=O)(=O)N3CCC(C(=O)NCc4ccc(Cl)cc4)CC3)cc2NC1=O (stereo not drawn) | 8.37%
O=C1NC(=O)C2(CCC(C(=O)O)C2)N1 (stereo not drawn) | 14%
CC1CC(=O)c2cnc(NCc3ccco3)nc2C1 (stereo not drawn) | 12.2%
O=C(/C=C/c1ccc(N2CCCCC2)c([N+](=O)[O-])c1)c1ccc(O)cc1 | 10.9%

SMILES | hERG current change (%, negative = inhibition) at 1uM
COc1cc2[nH]c3c(N4CCC(C(N)=O)CC4)ncnc3c2cc1OC | 9.48%
COc1ccc(S(=O)(=O)N2CCC(C(=O)NC3CC3)CC2)cc1C | 12.1%
COc1ccc(COC(=O)C2CCN(C(=O)c3ccc(Cl)cc3)CC2)cc1F | -6.26%
Nc1ccccc1SCCS(=O)(=O)c1ccc(Cl)cc1 | 19.8%
Cc1ccccc1C(=O)Nc1ccnn1C1CCN(Cc2ccncc2)CC1 | -3.47%
CN1C(=O)CC(C(=O)O)SC1=Nc1ccc(F)cc1 (stereo not drawn) | -0.107%
Cc1ccc(NC(=O)Cn2nnc(C(=O)NCCc3ccccc3)c2N)cc1Cl | 13.5%
Cc1ccc([N+](=O)[O-])cc1NC(=O)C(C)NS(=O)(=O)c1ccc(F)cc1 (stereo not drawn) | 13.2%
COCCNC(=S)Nc1ccccc1Cc1ccccc1 | 11.8%
Cc1ccc(-n2c(SCC(=O)N(C)C)nnc2-c2ccco2)cc1 | 9.65%
O=C(CCc1nnc(Cc2ccc(-c3ccccc3)cc2)o1)N1CCCC1 | 4.62%
CCCCOc1ccc(C(=O)N/C(=C/C=C/c2ccccc2)C(=O)N2CCOCC2)cc1 | 10.5%
Cc1cc(-c2cc(N)n(-c3ccccc3)n2)c(C)n1C1CCCC1 | 4.93%
O=C(Oc1ccc(-c2cnc3ccccc3n2)cc1)c1ccco1 | 6.39%
Cn1cnnc1SCc1ccc(C(=O)O)cc1 | 9.77%
CCN(CC)CC(=O)Nc1ccc(Oc2ccc(NC(=O)CN(CC)CC)cc2)cc1 | 14.2%
CCN(C(=O)c1cccnc1SC)C12CC3CC(CC(C3)C1)C2 | 12.5%
CCOC(=O)Cc1nnc(NC(=O)C2CCCCC2)s1 | 4.85%
O=C(COC(=O)CN1C(=O)C2CCCCC2C1=O)Nc1c(Cl)cccc1Cl (stereo not drawn) | -0.667%
